Target: T1, HER2 (ErbB2) on the surface of human tumour cell lines (human, UniProt P04626)
T1 construct: Endogenous HER2 of the cell lines; also called cell surface Her2
Test: cell staining at 200 nM, cells dissociated with trypsin or CellStripper

B1: HER085 (Fc fusion)
chain: [sequence of about 100 residues omitted]GGSGSDYWGQGTMVTVSSGGGGSGGGGSGGGGSALNFMLTQPHSVSGSPGKTVTISCTRSSGYIDSKYVQWYQQRPGSAPTTVIYEDNRRPSGVPDRFSGSIDSSSNSASLTISGLETEDEADYYCQSYDDTNVVFGGGTKVTVLGDVR[sequence of human IgG1 Fc with changes omitted]
notes: SMIP; also called HER085 SMIP
B1: binds.
